Like-named read-outs stand apart in the source and are kept apart here.

Test [1] concerns the target T1, Human IL-1R-I (RnD Systems cat. no. 269-1R/CF) (human, UniProt P14778 18-332, limits assumed).
T1 construct: Bought recombinant protein; also called hIL-1R-I; hIL-1RI
T1 sequence (looked up): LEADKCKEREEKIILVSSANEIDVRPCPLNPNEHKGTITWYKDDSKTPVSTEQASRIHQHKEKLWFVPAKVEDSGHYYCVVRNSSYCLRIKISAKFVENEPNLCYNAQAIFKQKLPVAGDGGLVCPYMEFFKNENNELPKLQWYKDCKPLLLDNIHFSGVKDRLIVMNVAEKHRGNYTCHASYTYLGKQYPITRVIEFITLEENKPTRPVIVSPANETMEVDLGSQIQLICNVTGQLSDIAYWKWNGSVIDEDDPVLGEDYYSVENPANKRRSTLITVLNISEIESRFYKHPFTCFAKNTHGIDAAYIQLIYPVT
As to the kind of experiment: Biacore 2000 SPR (Example 9); hIL-1R-I immobilised, His6-Z at 48, 12, 3 and 0.75 nM, 1:1 model. The source says: (§1) One flow cell surface on the chip was activated and deactivated for use as blank during analyte injections.
For orientation: SPR reads the build-up and loss of mass on a sensor chip optically.

The target in test [2] is T1, Human IL-1R-I (RnD Systems cat. no. …). As to the kind of experiment: Biacore 2000 SPR (Example 5); hIL-1R-I immobilised, His6-Z at 100, 10 and 1 nM, 1:1 model.
Description: as §1

Test [3] shares this target. As to the kind of experiment: Biacore 2000 SPR; hIL-1R-I immobilised on CM5, His6-Z at 40 and 10 nM, 1:1 model.
Description: as §1

In test [4] the target is T2, IL-1R-I on cells (TF-1 cells, NHDF cells, human whole blood) (human, UniProt P14778 18-569).
T2 sequence (looked up): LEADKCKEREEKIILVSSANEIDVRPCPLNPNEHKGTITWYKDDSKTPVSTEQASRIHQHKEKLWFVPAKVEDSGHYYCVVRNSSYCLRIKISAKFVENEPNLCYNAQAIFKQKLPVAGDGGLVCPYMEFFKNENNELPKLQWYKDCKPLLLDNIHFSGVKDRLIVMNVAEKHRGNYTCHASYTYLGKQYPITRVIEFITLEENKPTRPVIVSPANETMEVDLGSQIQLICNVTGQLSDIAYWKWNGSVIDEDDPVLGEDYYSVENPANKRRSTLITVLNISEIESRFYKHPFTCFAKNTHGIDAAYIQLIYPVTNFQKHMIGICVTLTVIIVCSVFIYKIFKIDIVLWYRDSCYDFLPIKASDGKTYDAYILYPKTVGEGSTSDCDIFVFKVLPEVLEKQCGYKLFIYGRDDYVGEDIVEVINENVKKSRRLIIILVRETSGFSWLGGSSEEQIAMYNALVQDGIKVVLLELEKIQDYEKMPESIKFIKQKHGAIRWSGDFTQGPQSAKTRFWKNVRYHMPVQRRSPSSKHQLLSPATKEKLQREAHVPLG
As to the kind of experiment: cell-based or functional assay.

Test [5] concerns the target T3, cynomolgus IL-1R-I-His6 (cynomolgus, UniProt P14778 19-332 (human entry), limits assumed).
T3 construct: also called cIL-1R-I-His6
T3 chain: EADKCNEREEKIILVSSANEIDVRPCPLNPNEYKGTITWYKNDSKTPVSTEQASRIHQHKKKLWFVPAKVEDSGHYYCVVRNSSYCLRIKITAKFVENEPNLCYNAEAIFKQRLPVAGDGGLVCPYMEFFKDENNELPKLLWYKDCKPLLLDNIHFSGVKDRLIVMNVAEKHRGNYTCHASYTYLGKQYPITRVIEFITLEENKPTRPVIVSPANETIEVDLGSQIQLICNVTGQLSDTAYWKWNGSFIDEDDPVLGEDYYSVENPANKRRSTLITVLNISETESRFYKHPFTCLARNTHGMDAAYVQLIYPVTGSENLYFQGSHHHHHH
As to the kind of experiment: Biacore 2000 SPR; cIL-1R-I-His6 immobilised on CM5, His6-Z at 40 and 10 nM, 1:1 model.
Description: as §1

Test [6] has as its target T2, IL-1R-I on cells (TF-1 cells, NHDF …). As to the kind of experiment: cell-based or functional assay. This is another data set of the same source.
Test [7] addresses T3, cynomolgus IL-1R-I-His6. As to the kind of experiment: Biacore 2000 SPR; cIL-1R-I-His6 immobilised, His6-Z at 100, 10 and 1 nM, 1:1 model.
Description: as §1

The target of test [8] is T4, human IL-1R-I on Normal Human Dermal Fibroblasts (NHDF) cells (human, UniProt P14778 18-569).
T4 sequence (looked up): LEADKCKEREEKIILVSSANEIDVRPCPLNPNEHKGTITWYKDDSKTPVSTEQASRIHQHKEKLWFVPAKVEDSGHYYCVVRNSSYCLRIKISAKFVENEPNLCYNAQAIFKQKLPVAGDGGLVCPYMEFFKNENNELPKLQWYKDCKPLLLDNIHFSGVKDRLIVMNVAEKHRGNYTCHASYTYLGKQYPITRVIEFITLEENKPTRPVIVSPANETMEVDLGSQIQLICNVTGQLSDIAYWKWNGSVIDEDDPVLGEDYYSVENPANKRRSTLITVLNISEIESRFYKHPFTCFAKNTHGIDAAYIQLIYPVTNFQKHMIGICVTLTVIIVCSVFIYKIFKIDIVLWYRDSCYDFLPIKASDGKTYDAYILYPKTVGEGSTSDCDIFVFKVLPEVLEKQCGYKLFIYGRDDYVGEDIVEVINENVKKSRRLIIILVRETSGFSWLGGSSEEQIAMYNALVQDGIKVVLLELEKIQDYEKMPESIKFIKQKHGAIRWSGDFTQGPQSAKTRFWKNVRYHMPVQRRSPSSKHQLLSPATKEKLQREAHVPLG
As to the kind of experiment: cell-based or functional assay.

The target of test [9] is T5, biotinylated FCγR3A (Sino Biological) (UniProt P08637 17-208, biotinylated).
T5 construct: Immobilised on a streptavidin biosensor
T5 sequence (P08637 17-208): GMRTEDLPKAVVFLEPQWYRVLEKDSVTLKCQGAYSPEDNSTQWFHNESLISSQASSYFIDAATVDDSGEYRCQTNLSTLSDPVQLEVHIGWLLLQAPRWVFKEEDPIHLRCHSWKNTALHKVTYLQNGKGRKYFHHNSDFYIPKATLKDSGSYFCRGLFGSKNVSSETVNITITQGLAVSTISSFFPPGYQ
As to the kind of experiment: Biolayer interferometry, biotinylated FCγR3A on streptavidin sensor. From the text: In addition Human IgG (GammaNorm, Octapharma) was used as control in the measurements.
Background: In BLI a coated tip is dipped into the sample, and binding shifts an interference pattern.

Test [10] deals with T4, human IL-1R-I on Normal Human Dermal …. As to the kind of experiment: cell-based or functional assay. The source holds these as a separate data set.
In test [11] the target is T6, Human IL-1R-I-Fc (Creative BioMart cat. no. IL1RI-771H) (human, UniProt P14778 18-332, limits assumed).
T6 construct: Bought protein; also called hIL-1R-I-Fc; hIL-1RI-Fc; not shown: Fc part of the bought fusion
T6 sequence (looked up): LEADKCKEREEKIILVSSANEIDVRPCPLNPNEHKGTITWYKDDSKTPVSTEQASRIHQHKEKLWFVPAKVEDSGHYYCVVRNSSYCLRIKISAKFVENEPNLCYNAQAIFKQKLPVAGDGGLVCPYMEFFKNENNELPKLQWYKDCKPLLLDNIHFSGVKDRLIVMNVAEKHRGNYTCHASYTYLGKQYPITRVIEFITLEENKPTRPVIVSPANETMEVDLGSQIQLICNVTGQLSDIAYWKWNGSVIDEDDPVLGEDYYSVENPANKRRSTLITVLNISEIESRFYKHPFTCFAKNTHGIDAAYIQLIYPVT
As to the kind of experiment: ELISA titration (Example 4); Z-ABD periplasmic extract, hIL-1R-I-Fc 100-0.01 nM. In general terms: In an ELISA, binding on a coated surface is turned into a signal by an enzyme label.

The target of test [12] is T1, Human IL-1R-I (RnD Systems cat. no. …). As to the kind of experiment: Biacore T200 kinetic screening; Z-ABD captured on anti-ABD antibody, 100 nM hIL-1R-I injected.
The target of test [13] is T6, Human IL-1R-I-Fc (Creative BioMart cat. …). As to the kind of experiment: ELISA titration; Z-ABD periplasmic extract, hIL-1R-I-Fc 100-0.01 nM.
Test [14] has the same target. As to the kind of experiment: ELISA titration (Example 8); Z-ABD periplasmic extract, hIL-1R-I-Fc 20-0.002 nM.
In test [15] the target is T1, Human IL-1R-I (RnD Systems cat. no. …). As to the kind of experiment: Biacore 2000 kinetic screening (Example 8); Z-ABD captured on anti-ABD antibody, 100 nM hIL-1R-I injected.

B1: His6-tagged Z12967 (designed binder)
chain: MGSSHHHHHHLQVDAKYAKEAHRAQMEIFALPNLTRRQYTAFIRKLLDDPSQSSELLSEAKKLNDSQAPKVD
notes: also called His6-Z12967
With B1, the Kd came to 0.82 nM in [1], 0.51 nM in test [2], 1.2 nM in [3] and 35 nM with cynomolgus IL-1R-I-His6 [5]. Besides, in test [4], the “IC50, inhibition of IL-1B induced proliferation of TF-1 cells” value worked out at 1.1 nM. In addition, the “IC50, TF-1 cell assay (Example 5)” value in test [6] amounted to 5.2 nM. Also, the “IC50, TF-1 cell assay (Example 9)” value in [6] was 7.4 nM.

B2: His6-tagged Z18557 (designed binder)
chain: MGSSHHHHHHLQVDAKYAKEIEAVQMEIFYLPNLTRKQYTAFIRKLFDDPSQSSELLSEAKKLNDSQAPKVD
notes: also called His6-Z18557
B2: the Kd in [1] turned out to be 0.14 nM; with cynomolgus IL-1R-I-His6 [7], 7.6 nM. Besides, the “IC50, TF-1 cell assay (Example 9)” value in [6] was found to be 0.6 nM.

B3: PSI0655 (Z18754[N297A]-YTE-IgG1 Fc) (Fc fusion)
chain: AEAKYAKEVEEIQMEIFRLPNLTRRQYTAFIRKLLDDPSQSSELLSEAKKLSESQAPKASGGGGSGGGGSDKTHTCPPCPAPELLGGPSVFLFPPKPKDTLYITREPEVTCVVVDVSHEDPEVKFNWYVDGVEVHNAKTKPREEQYASTYRVVSVLTVLHQDWLNGKEYKCKVSNKALPAPIEKTISKAKGQPREPQVYTLPPSRDELTKNQVSLTCLVKGFYPSDIAVEWESNGQPENNYKTTPPVLDSDGSFFLYSKLTVDKSRWQQGNVFSCSVMHEALHNHYTQKSLSLSPGK
B3: in test [8], the “IC50 (pM), inhibition of IL-1B induced IL-6 release in NHDF cells” value amounted to 5.9 pM.

B4: PSI0654: Z18754[N297A]-LS-IgG1 Fc (Fc fusion)
chain: AEAKYAKEVEEIQMEIFRLPNLTRRQYTAFIRKLLDDPSQSSELLSEAKKLSESQAPKASGGGGSGGGGSDKTHTCPPCPAPELLGGPSVFLFPPKPKDTLMISRTPEVTCVVVDVSHEDPEVKFNWYVDGVEVHNAKTKPREEQYASTYRVVSVLTVLHQDWLNGKEYKCKVSNKALPAPIEKTISKAKGQPREPQVYTLPPSRDELTKNQVSLTCLVKGFYPSDIAVEWESNGQPENNYKTTPPVLDSDGSFFLYSKLTVDKSRWQQGNVFSCSVLHEALHSHYTQKSLSLSPGK
notes: Produced in CHO cells
For the molecule B4, the binding result in test [9] is “no binding (tested: 100 and 1000 nM)”.

B5: PSI0655: Z18754[N297A]-YTE-IgG1 Fc (Fc fusion)
chain: AEAKYAKEVEEIQMEIFRLPNLTRRQYTAFIRKLLDDPSQSSELLSEAKKLSESQAPKASGGGGSGGGGSDKTHTCPPCPAPELLGGPSVFLFPPKPKDTLYITREPEVTCVVVDVSHEDPEVKFNWYVDGVEVHNAKTKPREEQYASTYRVVSVLTVLHQDWLNGKEYKCKVSNKALPAPIEKTISKAKGQPREPQVYTLPPSRDELTKNQVSLTCLVKGFYPSDIAVEWESNGQPENNYKTTPPVLDSDGSFFLYSKLTVDKSRWQQGNVFSCSVMHEALHNHYTQKSLSLSPGK
notes: Produced in CHO cells
For the molecule B5, the binding result in test [9] is “no binding (tested: 100 and 1000 nM)”.

B6: PSI0589 (PSI0536[amino acids 1-86], dimeric) (designed binder)
chain: AEAKYAKEVEEIQMEIFRLPNLTRRQYTAFIRKLLDDPSQSSELLSEAKKLSESQAPKASGGGGSGGGGSDKTHTCPPCPAPELLG
Consider B6, for which, in [10], the “IC50 (pM), inhibition of IL-1B induced IL-6 release in NHDF cells” value was 1.8 pM.

B7: Z12967 as Z-ABD fusion (periplasmic extract) (designed binder)
chain: AQHDEALEVDAKYAKEAHRAQMEIFALPNLTRRQYTAFIRKLLDDPSQSSELLSEAKKLNDSQAPKVDYVLAEAKVLANRELDKYGVSDYYKNLINNAKTVEGVKALIDEILAALPYVPG
With B7, the EC50 amounted to 0.24 nM in test [11], 0.17 nM in [13] and 0.26 nM in test [14]. In addition, the Kd is 25 nM in test [12] and 27 nM in [15].

By Kd is commonly meant the equilibrium constant for the complex coming apart. Low values mean tighter binding, high ones weaker binding. The term EC50 denotes the concentration needed to bring the measured effect to its halfway point. Low values mean higher potency in that assay, high ones lower potency in that assay.
